Screen size: about 310,000 compounds; about 11,000 (3.5%) were called active. Inconclusive means that the source gave no clear call. Such entries were picked first, then a sample of the others. Calls follow the shape of the dose curve; as a rule, active = well fitted inhibition curve with a large enough effect; inconclusive = small, poorly fitted or top-dose-only effect, or effect the other way; inactive = flat fitted curve, though single readings scatter. Potencies of inconclusive entries are left out as doubtful fits.
Experiment: VP16 counterscreen qHTS for inhibitors of ROR gamma transcriptional activity;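 also: Gal4-VP16 expression switched on by copper sulfate through the metallothionein promoter; nearly all actives have a fitted effect of over 50% in size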
Details: Drosophila S2 Gal4-VP16 UAS-luciferase, luminescence, 20 h; activity, negative = inhibition: at 53.6 µM (top of the series)
% is scaled to controls: 0 for no effect and ±100 for the full control effect; potency is read from the fitted curve at half-maximal effect; tags tell the direction and shape of the fitted curve.

Row | SMILES | Potency | activity, negative = inhibition
1 | Cc1cccc(NC(=O)CSc2nc3c([nH]c4ccccc43)c(=O)n2C)c1 | inconclusive [inhibitor, single point] | –
2 | Cc1c(CCOC(=O)c2cc([N+](=O)[O-])cc([N+](=O)[O-])c2)sc[n+]1CC(=O)c1ccccc1 | inconclusive [inhibitor, single point] | –
3 | CC(C)CC(=O)NC(NC(=S)Nc1ccccc1)C(Cl)(Cl)Cl (configuration not stated) | – | inactive: 4.9%
4 | CC(=O)N1c2ccc(S(=O)(=O)N3CCC(C(=O)N4CC(C)CC(C)C4)CC3)cc2CC1C (configuration not stated) | – | inactive: 4.19%
5 | Cc1ccc(NC(=S)NNc2ncc(C(F)(F)F)cc2Cl)c(C)c1 | inconclusive [inhibitor, single point] | –
6 | CCOCCN1CCN(c2c(CC)c(C)nc3cc(-c4cc(OC)cc(OC)c4)nn23)CC1 | – | inactive: -15.2%
7 | O=C1CSC(=S)N1c1cccc(O)c1 | – | inactive: -5.84%
8 | CCC(C(=O)NCCC(C)C)n1ccc2cc(S(=O)(=O)N3CCCCC3)ccc21 (configuration not stated) | inconclusive [inhibitor, single point] | –
9 | Cc1cccc(NC(=S)N/N=C2/CCCCc3ccccc32)c1 | active: 6.31 µM | –
10 | COc1cc(/C=N/NC(=O)CN2CCCCC2)ccc1OCc1ccc(Br)cc1 | – | inactive: -5.8%
11 | CC(C)(C)C1CCC(=NNC(=S)Nc2cccnc2)CC1 (configuration not stated) | – | inactive: -6.22%
12 | O=C(N/N=C/c1cccn1-c1cccc(C(=O)O)c1)Nc1ccccc1 | inconclusive [activator, single point] | –
13 | COC(=O)/C=C1\S/C(=N/NC(=O)c2ccc(OC)cc2)NC1=O | – | inactive: -7.99%
14 | CCOC(=O)C1(CC2CCCCO2)CCN(Cc2cc3ccccc3[nH]2)CC1 (configuration not stated) | inconclusive [inhibitor, single point] | –
15 | C#CCCCO/N=C1/C[C@@H](O)[C@@H](O)[C@@H]2[C@H]3C(=O)N(c4ccc(F)cc4F)C(=O)[C@@H]3CC[C@@H]12 | – | inactive: 10.3% [at 10 µM]
16 | O=C(N/N=C/c1ccccn1)c1cc(-c2ccccc2)nc2ccccc12 | active: 0.794 µM | –
17 | O=c1c(-c2cccs2)nc2cncnc2n1Cc1ccccc1 | – | inactive: 15.9%
18 | C/C(=N/Nc1nc(C)cc(-c2ccccc2)n1)c1ccco1 | active: 17.8 µM | –
19 | CC(C)(C)n1nnnc1C(c1ccncc1)N1CCN(C2CCCCC2)CC1 (configuration not stated) | – | inactive: 17.8%
20 | C=C1CCN([C@H](C(=O)OCc2ccc(C)cc2)C(C)C)S(=O)(=O)c2ccccc21 | inconclusive [inhibitor, single point] | –
21 | COc1ccc(C(CCN)Cc2ccccc2)cc1 (configuration not stated) | – | inactive: 20.8% [at 10 µM]
22 | COC(=O)CNC(c1ccccc1)c1cc(Br)ccc1NC(=O)CCN1CCOCC1 (configuration not stated) | active: 14.1 µM | –

Source: PubChem BioAssay AID2546 (National Center for Advancing Translational Sciences (NCATS), 2010)
